Assay results published in PubChem BioAssay AID488969 (Vanderbilt High Throughput Screening Facility, 2010).
The full ranking holds about 110,000 compounds; the median of “z-score” is about -0.1, and the highest 2% start at about 2. This is one part of the list. Calls of active or inactive are those of the source.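 Rule for the calls: active = z-score in the third read window above 3 or below -3; inactive = the rest.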

The compounds below were run against Metabotropic glutamate receptor 8 (Rattus norvegicus) (UniProt P70579) (assay: rat mGluR8 modulators via GIRK flux, primary screen, cell-based, thallium flux, HTS (AID 488969)). Conditions: HEK293 rat mGluR8, GIRK (G protein-gated inwardly rectifying potassium channel) thallium flux, FluoZin2; at 10 µM; stronger effect = higher value; submaximal glutamate (EC20) added with thallium.
Sequence of UniProt P70579 (P70579 whole entry, looked up): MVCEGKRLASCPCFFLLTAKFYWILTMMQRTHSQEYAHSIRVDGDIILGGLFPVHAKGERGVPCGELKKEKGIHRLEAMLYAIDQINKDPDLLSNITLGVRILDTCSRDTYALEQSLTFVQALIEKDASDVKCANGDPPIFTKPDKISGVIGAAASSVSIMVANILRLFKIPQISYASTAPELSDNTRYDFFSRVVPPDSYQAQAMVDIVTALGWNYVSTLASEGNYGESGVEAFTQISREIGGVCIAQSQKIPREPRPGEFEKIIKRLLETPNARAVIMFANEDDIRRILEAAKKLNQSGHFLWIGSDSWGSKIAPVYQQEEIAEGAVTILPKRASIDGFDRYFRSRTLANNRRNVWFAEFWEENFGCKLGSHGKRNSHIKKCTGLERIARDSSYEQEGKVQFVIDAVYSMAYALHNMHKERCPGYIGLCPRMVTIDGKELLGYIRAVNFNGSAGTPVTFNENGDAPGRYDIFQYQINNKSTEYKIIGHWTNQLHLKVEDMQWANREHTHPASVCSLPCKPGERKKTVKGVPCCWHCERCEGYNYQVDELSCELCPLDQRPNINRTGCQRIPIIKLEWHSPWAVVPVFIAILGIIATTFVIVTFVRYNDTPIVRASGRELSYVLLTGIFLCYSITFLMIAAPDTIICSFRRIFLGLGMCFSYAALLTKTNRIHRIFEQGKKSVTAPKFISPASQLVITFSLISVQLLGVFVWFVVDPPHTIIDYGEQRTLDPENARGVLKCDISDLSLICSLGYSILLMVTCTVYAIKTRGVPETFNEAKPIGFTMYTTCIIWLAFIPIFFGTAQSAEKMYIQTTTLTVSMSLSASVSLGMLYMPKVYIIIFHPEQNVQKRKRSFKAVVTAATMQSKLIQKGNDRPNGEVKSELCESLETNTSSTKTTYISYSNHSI
CN(C)CCN1C(=O)C(O)=C(C(=O)c2cc3ccccc3o2)C1c1ccccn1 (stereo not drawn) showed a z-score of 0.172. For CCOc1ccc(-c2nn3c(-c4ccccc4)nnc3s2)cc1, the z-score was 0.0852. O=C(Cc1ccc(Cl)cc1Cl)Nc1ccc(OC(F)F)c(Cl)c1 gave a z-score of -0.174. Compound COC(=O)c1cc(OC)c(OC)cc1NC(=O)CSc1nnc(-c2cccnc2)n1C has a z-score of -0.243. For CCCCC(C)n1[nH]c(=O)cc1N (stereo not drawn), the z-score was -0.279. Cc1ccc(C(=O)c2coc3c2C(=O)C(=O)c2ccccc2-3)cc1 was tested, and the z-score was 0.63. Compound O=C(Nc1ccc(-c2nc3cccnc3s2)cc1)c1ccc(Br)o1 has a z-score of -0.635. O=C(CCC(=O)OCC(=O)c1ccc(Br)cc1)Nc1cccc2cccnc12 gave a z-score of -0.2. For O=C(N/N=C/c1ccccc1[N+](=O)[O-])c1ccc(CN2CCOCC2)cc1, the z-score was 1.27. CN(C)c1nc(N)nc(CSc2nnnn2-c2ccccc2)n1 showed a z-score of 0.111. CCOC(=O)C1CCN(C(=O)COc2ccc(Cl)cc2)CC1 showed a z-score of -0.448. With Cc1ccccc1CS(=O)(=O)CCC(=O)NCCCN1CCOCC1 the z-score was 0.319. Work on O=[N+]([O-])c1ccc(Cl)c(/C=N/N2CCN(Cc3ccccc3)CC2)c1 yielded a z-score of -0.098. Cc1[nH]c(=O)[nH]c(=O)c1NC(=O)c1cccs1 gave a z-score of -0.625. With CCOC(=O)c1oc2ccccc2c1NC(=O)c1ccc(Cl)s1 the z-score was 0.609. Compound COc1ccc(C)cc1S(=O)(=O)N(C)CC(=O)Nc1ccccc1 has a z-score of 0.902. COc1ccc(N(C)S(=O)(=O)c2ccc3c(c2)CCC(=O)N3)cc1 gave a z-score of -0.122. COc1ccc(N2Cc3cccc(C(=O)NC(C)CCc4ccco4)c3C2=O)cc1 (stereo not drawn) was tested, and the z-score was -1.24. Work on O=C(Cn1ccc2ccccc2c1=O)NCCC(=O)Nc1cccnc1 yielded a z-score of 0.609. Cc1cc(C)n2nc(S(=O)(=O)N(C)Cc3ccccc3)nc2n1 gave a z-score of 1.11. With CCc1nnc(NC(=O)CSc2nnc(C3CCCCC3)n2-c2cccc(Cl)c2)s1 the z-score was active: -3.11. CC(C)(C(=O)c1ccccc1)/[N+]([O-])=C/c1ccccc1 was tested, and the z-score was -0.279. In the case of COc1ccc(OC)c(NC(=S)N2CCN(C/C=C/c3ccccc3)CC2)c1, the z-score is reported as -0.183. In the case of CCCCCn1c(=N)n(CC(O)COc2ccccc2OC)c2ccccc21 (stereo not drawn), the z-score is reported as -1.11. COc1ccc(NS(=O)(=O)c2ccc(NC(=S)NC(=O)c3cccc(F)c3)cc2)nn1 showed a z-score of -0.167. In the case of CCOC(=O)C(Cc1ccccc1)C(=O)Nc1cccc(C)c1 (stereo not drawn), the z-score is reported as -0.552. For CCc1cc(=O)oc2cc(OCC(=O)N(CC)CC)c(Cl)cc12, the z-score was -0.13. For COC(=O)c1[nH]c2ccc(C)cc2c1NC(=O)Nc1ccccc1OC, the z-score was 0.195. Compound O=C(CSc1ccc(Cl)cc1)Nc1cccc(NC(=O)c2ccco2)c1 has a z-score of -0.78. In the case of CCOC(=O)c1cc(C(=O)OCC)c2cccc(C)n2c1=O, the z-score is reported as -0.264. In the case of Cc1cc(C)n(C(=O)c2ccc(NC(=O)C3CC3)cc2)n1, the z-score is reported as -0.0142. CCC1Oc2ccc(C)cc2N(CC(=O)NCCc2ccc(OC)c(OC)c2)C1=O (stereo not drawn) gave a z-score of 0.0801. Compound CC(Sc1nc(-c2ccccc2)nc2c1COC(C)(C)C2)C(=O)N1CCOCC1 (stereo not drawn) has a z-score of -0.259. Work on O=C(Nc1ccc(Cl)cc1-c1nc2ccccc2s1)c1ccco1 yielded a z-score of -0.0775. In the case of CCOc1cc(CN2CCN(CCOCCO)CC2)ccc1OC, the z-score is reported as -0.0768. Compound Cn1c(=O)oc2cc(S(=O)(=O)NCCC(=O)N3CCc4ccccc43)ccc21 has a z-score of -0.0872. With N#Cc1c2c(c(=S)n(-c3ccccc3)c1N)CCCC2 the z-score was -0.205. CCOC(=O)c1[nH]c2ccc(Cl)cc2c1-c1ccccc1 gave a z-score of -0.128. In the case of COC(=O)c1c(NC(=O)c2ccccc2[N+](=O)[O-])sc2c1CC(C)(C)NC2(C)C, the z-score is reported as 0.735. With COc1ccc(NC(=O)CN2C(=O)C(c3ccccc3)=NC23CCCCCC3)cc1OC the z-score was -0.217. With CCOC(=O)c1ccc(NC(=O)CSc2nc3ncccc3[nH]2)cc1 the z-score was 0.152. For CCC(C)n1c(SCC(=O)Nc2ccccc2C(F)(F)F)nc2ccsc2c1=O (stereo not drawn), the z-score was -1.41. For O=C(Nc1ccccc1)Nc1cc(S(=O)(=O)N2CCOCC2)ccc1N1CCCC1, the z-score was -0.185. CCOC(=O)C1CCN(C(=O)c2c(-c3c(F)cccc3Cl)noc2C)CC1 showed a z-score of 0.439. For Cc1onc(-c2ccccc2)c1C(=O)Nc1ccc(S(=O)(=O)NC2=NCCCCC2)cc1, the z-score was 0.349. CCC(C)NC(=O)c1ccc(CS(=O)(=O)c2ccc(OC)cc2)o1 (stereo not drawn) showed a z-score of -0.101. With O=C(CNC(=O)C1COc2ccccc2O1)N/N=C\c1cccc(O)c1 (stereo not drawn) the z-score was -0.458. Work on Cc1cc2c(n1-c1ccc(C(N)=O)cc1)CC(C)(C)CC2=O yielded a z-score of 0.0347. Cc1c(C(=O)Nc2ccc(-n3cnnn3)cc2)oc2ccccc12 was tested, and the z-score was 0.556. O=S(=O)(c1cnccc1N1CCN(/N=C/c2ccc(Cl)cc2)CC1)N1CCCCC1 showed a z-score of -0.388. COc1ccc(/C=N/NC(=O)C(N)=O)c(OC)c1OC gave a z-score of -0.0372. Compound CC(C)NC(=O)Cn1nc(C(F)(F)F)c2c1CCC2 has a z-score of -0.11. With CCCC(=O)N=C1SC2CS(=O)(=O)CC2N1c1ccc(CC)cc1 (stereo not drawn) the z-score was 0.00987. With CCSc1nnc(NC(=O)C(C)Sc2nc3ccccc3[nH]2)s1 (stereo not drawn) the z-score was 1.73. COc1ccc(OCC(O)CNC(=O)c2ccc(Br)cc2)cc1 (stereo not drawn) showed a z-score of -0.0997. Compound O=C(c1ccco1)N1CCN(c2cc(=O)n(-c3ccc(Cl)cc3)c(=O)[nH]2)CC1 has a z-score of -0.434. For COc1ccc(OC)c(-c2cc(C(F)(F)F)c3c(n2)sc2c(O)cc(=O)[nH]c23)c1, the z-score was -0.747. O=C(Nc1ncc(Cc2cccc(Cl)c2)s1)C1CCCO1 (stereo not drawn) was tested, and the z-score was -1.83. Work on COc1ccc(Br)cc1CN(C)CC(=O)Nc1cc([N+](=O)[O-])ccc1OC yielded a z-score of -0.333. C=C(C)CNC(=S)NNC(=O)CCn1c2cc(Cl)ccc2c2ccc(Cl)cc21 gave a z-score of 0.249. In the case of C=CCNc1oc(/C=C/c2ccccc2)nc1C#N, the z-score is reported as -0.179. Compound COC(=O)c1ccc(NC(=O)Cc2ccccc2)cc1 has a z-score of 0.253. For COc1ccc(Cl)cc1N(CC(=O)NC(C)(C)C)S(=O)(=O)c1ccc(C)c([N+](=O)[O-])c1, the z-score was -0.264. With Cc1ccc(S(=O)(=O)N2CCCC(c3nnc4n3-c3ccccc3SC4)C2)cc1 (stereo not drawn) the z-score was -1.39. For CCCCNC(=O)Nc1nnc(-c2ccccc2)o1, the z-score was -0.218. For COc1ccccc1CNC(=O)C1CCN(S(=O)(=O)c2cccc3cccnc23)CC1, the z-score was 0.287. O=S(=O)(/C=C/c1ccccc1)Oc1ccccc1 showed a z-score of -0.844. For Cc1ccc(-c2cc(-c3ccc(C)o3)nc(N)c2C#N)cc1, the z-score was -0.0155. Work on Cc1ccc([N+](=O)[O-])cc1NC(=S)NC(=O)c1cccs1 yielded a z-score of 2.46. O=S(=O)(Nc1ccc2c(c1)OCCO2)c1cccs1 was tested, and the z-score was -0.0707. CC(=O)c1cccc(NC(=S)NC(=O)c2ccc(Cl)cc2)c1 was tested, and the z-score was -0.258. CCn1cnc2c1c(=O)n(Cc1csc(-c3ccccc3)n1)c(=O)n2Cc1ccccc1 gave a z-score of -1.3. O=C(NC(=S)NCCN1CCOCC1)c1ccccc1 showed a z-score of -0.0216. In the case of COc1ccccc1-c1nnc(SCC(=O)N2CC(C)CC(C)C2)o1 (stereo not drawn), the z-score is reported as -1.06. With Cc1ccc(-c2nnn(CC(=O)NC3CC4CCC3C4)n2)cc1 (stereo not drawn) the z-score was active: 5.1. CN(c1ccccc1C(=O)Nc1ccc2c(c1)OCO2)S(C)(=O)=O gave a z-score of 0.257. O=C(c1ccc(S(=O)(=O)N2CCCCC2)cc1)N1CCCc2ccccc21 showed a z-score of -0.234. With COc1cccc(CNc2nc3nc(C)c(Cl)c(C)n3n2)c1 the z-score was 0.0342. COc1ccccc1N=c1sc2ccccc2n1C showed a z-score of -0.334. With COc1ccc(/C(O)=C2\C(=O)C(=O)N(Cc3ccco3)C2c2cc(OC)ccc2OC)cc1 (stereo not drawn) the z-score was -1.65. With COC(=O)c1c(NC(=O)CSc2nnc(-c3ccco3)n2C)sc(C)c1C the z-score was -0.543. With Cc1cc(C)cc(NC(=O)C(OC(=O)C2=COCCO2)c2ccccc2)c1 (stereo not drawn) the z-score was -0.0119. Compound Cc1cc(C)cc(OCC(=O)OCC(=O)c2c(N)n(C)c(=O)n(C)c2=O)c1 has a z-score of -0.762. For CC(C)(C)C(=O)COC(=O)CNC(=O)c1ccc(Oc2ccccc2)cc1, the z-score was -0.933. COc1ccc(Cl)cc1NC(=S)NCCSc1ccc(C)cc1 was tested, and the z-score was 0.00838. Compound CCC(=O)N1c2ccc(S(=O)(=O)CCC(=O)N3CCn4c3nc3ccccc34)cc2CC1C (stereo not drawn) has a z-score of -0.344. In the case of CC1(C)Cc2nc3sc4c(=O)[nH]cnc4c3cc2CS1, the z-score is reported as -0.851. Work on Cc1ccc(-n2c(=O)cc(N3CCc4ccccc4C3)[nH]c2=O)cc1 yielded a z-score of -0.52. Clc1ccc(-c2c[n+](Cc3ccc(Cl)c(Cl)c3)c3n2CCC3)cc1 showed a z-score of -0.0432. For COc1ccc(-c2cc(C(=O)OCC(=O)Nc3cc(C)on3)c3ccccc3n2)cc1OC, the z-score was 0.365. For Cc1ccc(C(C)C)c(OCC(=O)Nc2ccc3c(c2)nc(CN2CCCC2)n3C)c1, the z-score was 1.05. Work on CCC1CCC(C(=O)NC(C(=O)Nc2ccc3c(c2)OCCO3)C(C)C)CC1 (stereo not drawn) yielded a z-score of -0.415. CCOC(=O)c1c(-c2cccs2)csc1NC(=O)c1ccco1 showed a z-score of -0.0478. Work on Cc1cc(C)c2c(n1)sc1c(=O)n(Cc3ccccc3Cl)nnc12 yielded a z-score of -0.506. Work on COc1ccc(-c2csc(NC(=O)COC(=O)Cc3ccc(Cl)cc3Cl)n2)cc1 yielded a z-score of -0.0844. With CCC(C)[C@@H](N)C(=O)N/N=C/c1ccc2ncccc2c1 (stereo partly drawn) the z-score was -0.156. Cc1cccc(NC(=O)C(c2cccc([N+](=O)[O-])c2)N2CCCCC2)c1 (stereo not drawn) was tested, and the z-score was -0.091. Work on O=C(CN1C2=NCCN2c2ccccc21)c1ccc(Br)s1 yielded a z-score of 0.52. CC(C)N=C(Nc1ccc(Cl)cc1)c1cccnc1 was tested, and the z-score was 0.0919. With COc1ccc(OC)c(CCNC(=O)Cn2sc3nc(C)cc(C)c3c2=O)c1 the z-score was 2.22. With CC(C)NC(=O)c1onc(CSc2ccc(F)c(F)c2)c1C(=O)O the z-score was -1.59. Compound CC(C)c1ccc(S(=O)(=O)N2CCN(CCC(=O)Nc3ccc(N(C)C)cc3)CC2)cc1 has a z-score of -0.439. Cc1cc(C)nc(SCC(=O)Nc2ccc(N3CCOCC3)c(Cl)c2)n1 gave a z-score of 0.243. CCc1ccc(OCC(=O)NCCOc2ccccc2)cc1 gave a z-score of 0.127. Compound CCCc1[nH]nc2c1C(c1cc(OC)cc(OC)c1)C(C#N)=C(N)O2 (stereo not drawn) has a z-score of 0.365. Compound Cc1ccc(-n2cccc2/C=N/n2cnnc2)cc1Cl has a z-score of 0.0564. O=C(CN1CCCC1)Nc1ccc(NC(=O)Nc2ccccc2)cc1 gave a z-score of -0.0128. With COC(=O)c1ccc(OCC(O)CN2CCC(C)CC2)cc1 (stereo not drawn) the z-score was 0.401.
